# From PubChem BioAssay AID624417 (National Center for Advancing Translational Sciences (NCATS), 2012)
# Out of some 410,000 compounds screened, about 6,400 (1.6%) were called active. The shares of active, inactive and inconclusive entries below differ from those in the screen. The call rests on the fitted dose curve; in most records, active means well fitted inhibition curve with a large enough effect; inconclusive means small, poorly fitted or top-dose-only effect; inactive means no such curve, though single readings can be large or run the other way. Potencies of inconclusive entries are left out as doubtful fits.
# Molecular target: Glucagon-like peptide 1 receptor (Homo sapiens) (UniProt P43220)
# Chain of UniProt P43220 (P43220 whole entry, looked up): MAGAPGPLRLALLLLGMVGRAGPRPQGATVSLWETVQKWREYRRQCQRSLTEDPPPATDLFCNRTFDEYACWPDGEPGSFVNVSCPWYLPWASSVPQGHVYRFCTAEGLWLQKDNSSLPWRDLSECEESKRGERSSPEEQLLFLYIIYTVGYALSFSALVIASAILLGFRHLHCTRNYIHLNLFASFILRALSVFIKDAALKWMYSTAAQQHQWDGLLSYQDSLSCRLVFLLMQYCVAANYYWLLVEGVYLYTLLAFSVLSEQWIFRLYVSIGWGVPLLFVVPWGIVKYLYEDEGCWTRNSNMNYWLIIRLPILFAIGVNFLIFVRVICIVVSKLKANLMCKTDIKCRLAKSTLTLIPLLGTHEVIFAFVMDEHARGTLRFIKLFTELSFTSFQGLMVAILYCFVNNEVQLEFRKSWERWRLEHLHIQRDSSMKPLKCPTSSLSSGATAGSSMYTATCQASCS
# Experiment: qHTS of GLP-1 Receptor Inverse Agonists (Inhibition Mode); further: nearly all actives have a fitted effect of over 55% in size
# Conditions: HEK293 GLP-1R CRE-luciferase, luminescence, 24 h, GLP-1R form is constitutively active; series mostly up to 38.3 µM
# In short: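 Inverse agonism was detected as reduced cAMP-driven luciferase luminescence after 24 h compound treatment. The cells were HEK293 clones expressing constitutively active human GLP-1R with the reporter. Reporter-only and GPR119 cell lines served as counterscreen controls.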
# Potency means the concentration at half of the fitted maximal effect; tags describe the fitted curve by direction and shape.
row,SMILES,Potency
1,COc1cc(C(=O)OCCc2cc3ccccc3c(=O)o2)cc(OC)c1OC,"inconclusive [inhibitor, full curve, poor fit]"
2,OC(c1ccc(Cl)cc1)c1ncc(-c2cccc(C(F)(F)F)c2)[nH]1 (stereo not drawn),"inconclusive [inhibitor, single point]"
3,Cc1cnc(=O)[nH]c1SCC(=O)Nc1cc(C(F)(F)F)ccc1Cl,inactive
4,CCNC(=O)C1CC(=O)N(CCCc2ccccc2)C(=Nc2ccccc2)S1 (stereo not drawn),"inconclusive [inhibitor, full curve, poor fit]"
5,O=C(c1ccc(NC(=O)C2(c3ccccc3)CCCC2)cc1)N1CCOCC1,"inconclusive [inhibitor, partial curve, poor fit]"
6,C/C(=N\NC(=S)NCc1ccccc1)c1ccc(C(C)(C)C)cc1,"inconclusive [inhibitor, full curve, poor fit]"
7,O=C(NC(Cc1c[nH]c2ccccc12)C(=O)Nc1ccc(F)c([N+](=O)[O-])c1)c1cccs1 (stereo not drawn),"inconclusive [inhibitor, partial curve, poor fit]"
8,Cc1cc2oc3c(c(=O)c2cc1C)C(c1ccc(C(C)C)cc1)N(c1nc(C)c(C)s1)C3=O (stereo not drawn),inactive
9,CCCOc1ccc(CNC(=O)C2CCN(C(=O)c3sccc3-n3cccc3)CC2)cc1,inactive
10,S=C(NCc1ccco1)N1CCN(c2cccc(Cl)c2)CC1,"inconclusive [inhibitor, partial curve, poor fit]"
11,O=c1onc(-c2ccccc2Cl)n1-c1ccccc1Cl,"inconclusive [inhibitor, partial curve, poor fit]"
12,CCC1(CC)Cc2ccccc2-c2nc3ccccc3c(=O)n21,active: 8.91 µM
13,CC(C)Oc1ccc(CN2CCC2(C)C(=O)Nc2cnc3ccccc3c2)cc1 (stereo not drawn),"inconclusive [inhibitor, partial curve, poor fit]"
14,Cc1ccc(OCC(=O)N2CCc3ccccc3C2)c(Br)c1,"inconclusive [inhibitor, partial curve, poor fit]"
15,Cc1c(Cl)cccc1-n1nc(C)c2c(C)cc(=O)n(CC(=O)N3CCCc4ccccc43)c21,inactive
16,Cc1cccc(C)c1OCc1cc(C(=O)NCC2CC2)no1,"inconclusive [inhibitor, partial curve]"
17,COC(=O)c1ccc2nc(C3CCCCC3)c(Cc3ccc(C)cc3)n2c1,"inconclusive [inhibitor, single point]"
18,CCOC(=O)c1ccc(-c2ccc(/C=N/NC(=O)CN(c3ccccc3Cl)S(C)(=O)=O)o2)cc1,inactive
